The supplement of paper PMC3334620
Whole data set: some 33,000 sequences, median “E-score (-0.5 to 0.5)” near -0.012, cut for the highest 2% near 0.27. The list shows a part of the results.

Target: T1, Vhr1 (UniProt P40522)
T1 sequence: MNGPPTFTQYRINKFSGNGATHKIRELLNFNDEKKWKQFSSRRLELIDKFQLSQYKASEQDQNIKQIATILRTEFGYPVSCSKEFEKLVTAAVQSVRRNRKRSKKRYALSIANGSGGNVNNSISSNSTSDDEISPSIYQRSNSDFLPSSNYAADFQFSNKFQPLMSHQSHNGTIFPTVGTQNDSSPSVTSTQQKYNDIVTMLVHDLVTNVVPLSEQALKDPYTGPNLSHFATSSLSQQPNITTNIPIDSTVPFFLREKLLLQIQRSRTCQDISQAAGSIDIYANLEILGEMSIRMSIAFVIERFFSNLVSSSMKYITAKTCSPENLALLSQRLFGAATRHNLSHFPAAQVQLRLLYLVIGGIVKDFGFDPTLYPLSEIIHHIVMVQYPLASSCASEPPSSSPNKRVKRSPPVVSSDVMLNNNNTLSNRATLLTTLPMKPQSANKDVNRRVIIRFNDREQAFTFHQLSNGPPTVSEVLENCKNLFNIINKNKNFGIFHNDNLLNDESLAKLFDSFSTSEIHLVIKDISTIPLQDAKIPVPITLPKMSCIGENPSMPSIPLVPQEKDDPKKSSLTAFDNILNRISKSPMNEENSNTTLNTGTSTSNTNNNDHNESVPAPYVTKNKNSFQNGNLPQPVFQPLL
Experiment: PBM E-score (8-mer binding enrichment) (E-score (-0.5 to 0.5)); higher = stronger / more preferred TF binding; most listed sequences are background and not binding sites
Conditions: protein concentration: 200 nM; construct: GST-full length
How it was run: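 E-scores (a modified Wilcoxon-Mann-Whitney statistic) were assigned by the Universal PBM Analysis Suite to every ungapped eight-base word pooled with its reverse complement. The input came from universal all-10-mer Agilent arrays made double-stranded by primer extension and probed with GST-tagged yeast transcription factors at about 100-200 nM. Fluorescent anti-GST detected bound protein, and masliner normalised the scans.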

| Sequence | PBM E-score |
| --- | --- |
| AATCTTAT | 0.0262 |
| AACATGTA | 0.138 |
| TCTACAAA | 0.063 |
| AATGTAGT | 0.0873 |
| ACTTGAGA | -0.0874 |
| CACAAATC | 0.0828 |
| CATTGGTC | -0.0115 |
| AACGAAAG | -0.204 |
| GGGGTGGA | 0.0544 |
| AAAGTTCC | -0.282 |
| GTTTTCGA | -0.0299 |
| CACCTCTC | -0.117 |
| CTAAGATA | 0.0776 |
| CAGTTCGG | -0.0416 |
| ATGTGTCG | 0.29 |
| CGTGAGCC | 0.0956 |
| GAGCCGGC | -0.00127 |
| TCATGAAA | -0.0216 |
| AGTTTATG | -0.0791 |
| ATCGTCGC | -0.0805 |
| CAGCGCGG | 0.122 |
| ATCCTCCG | -0.0227 |

| Sequence | PBM E-score |
| --- | --- |
| GACAATAA | 0.0432 |
| CTAGTAAC | 0.172 |
| CGACACTC | 0.207 |
| ACCTCCTC | -0.188 |
| CGCATCGC | -0.194 |
| GAATCTCC | 0.00162 |
| CCCTTCTC | -0.178 |
| CTTGTGTA | 0.0727 |
| CCGAAAGA | 0.0175 |
| CGACGGAG | 0.0734 |
| ATTGATGG | 0.0912 |
| CACCGGTG | -0.0803 |
| CCTACGAA | 0.0133 |
| GAAGGTCA | 0.0375 |
| CCGTTCAC | -0.164 |
| AGACCCCT | -0.216 |
| ATCAATGA | 0.0575 |
| GGCCCACC | 0.0435 |
| CGGACGAA | 0.133 |
| ACGGGCCC | -0.171 |
| GGACTTGA | -0.249 |
| ATTCTTGG | 0.0954 |

| Sequence | PBM E-score |
| --- | --- |
| ATTAAACC | 0.0183 |
| GACCCGCA | 0.109 |
| CCTACTCC | 0.00407 |
| GCGCTCCA | -0.0425 |
| ACGTACTA | 0.164 |
| CGATTCTC | 0.0478 |
| GAGGGGAA | -0.00828 |
| AGTTTGTC | -0.0447 |
| ATCGCTAC | -0.00539 |
| ACGGTATG | 0.0197 |
| AGTTACCG | 0.0322 |
| TGAACCAA | 0.174 |
| AAATCAAA | -0.315 |
| ATCTATAG | -0.096 |
| CTGATCCA | 0.188 |
| ACATCAAG | 0.0485 |
| CGCGCTCC | 0.232 |
| AACTCCGG | 0.00164 |
| GAGTGCTA | -0.0187 |
| GCGTATAA | 0.115 |
| GTAGACAA | -0.042 |
| CATATTCG | 0.0798 |

| Sequence | PBM E-score |
| --- | --- |
| ACATCTGG | -0.00989 |
| GAAGGAGC | -0.368 |
| CTCCACGA | -0.0659 |
| GAATTGAC | -0.109 |
| ATGCCTTG | -0.0907 |
| CCAGGGCG | 0.0297 |
| AATATAGG | 0.173 |
| TCGAACAA | 0.019 |
| CGTGGGAC | 0.0659 |
| CTGGCTCA | 0.28 |
| GCGGGTCC | -0.00354 |
| GCTATTCC | -0.0794 |
| CGTCCTTA | -0.0511 |
| AAAGAGCG | -0.0326 |
| AACAAGCC | -0.108 |
| GCCCCACA | 0.0562 |
| CACAAGTA | 0.0964 |
| AACCGCTC | 0.0198 |
| AGAGATCG | -0.11 |
| AGAAGCAA | 0.0863 |
| AGGATTGG | -0.0691 |
| CCCAACCG | -0.00458 |

| Sequence | PBM E-score |
| --- | --- |
| ACGTGTCT | 0.0218 |
| CCGAGGAA | -0.101 |
| AATCCACT | 0.065 |
| GCCTCGCA | 0.00196 |
| CATGTAAG | -0.0398 |
| CTAAGGCC | -0.281 |
| GGAGAGTA | -0.187 |
| CACTTATA | -0.121 |
| TCTTAGAA | -0.252 |
| ACTGCAAG | -0.0323 |
| CTGCCAGC | -0.132 |
| CCAGAGTA | 0.0867 |
| ACAATACG | -0.00306 |
| CGACTTCA | -0.0111 |
| ACACACTG | 0.163 |
| ACCATCGC | 0.164 |
| ACTTTTGA | -0.211 |
| GCGTGTTA | -0.0428 |
| CCACTTTA | 0.166 |
| CCAAATTA | -0.00099 |
| AAACCGAA | -0.119 |
| CCCTAACG | -0.259 |
